B1: P301L mutant human tau (hT40, 2N4R) with C-terminal NanoLuciferase (natural protein)
chain: not shown
notes: microtubule-associated protein tau, human, full-length hT40 (2N4R) isoform with the inherited FTLD mutation P301L; Point mutation made by site-directed mutagenesis; also called P301L tau; FTLD mutant tau; source: HEK293T, transfected (pCMV), in lysate (pull-down) or in living cells (nBRET); not shown: NanoLuciferase, C-terminal, kept
B2: R5L mutant human tau (hT40, 2N4R) with C-terminal NanoLuciferase (natural protein)
chain: not shown
notes: microtubule-associated protein tau, human, full-length hT40 (2N4R) isoform with the inherited FTLD mutation R5L; Point mutation made by site-directed mutagenesis; also called R5L tau; FTLD mutant tau; source: HEK293T, transfected (pCMV), in lysate (pull-down) or in living cells (nBRET); not shown: NanoLuciferase, C-terminal, kept

What was measured:
Settings in all cases: partners not purified
[1] = target: T1, HaloTag-protein phosphatase 1 gamma 1; assay: pull-down; HaloTag-based pull-down: tau-NanoLuc and Halo-PP1 (or HaloTag only) co-expressed in HEK293T; lysate (1% Triton X-100, 150 mM NaCl, pH 7.5) on HaloLink resin 1 h; eluted tau blotted (R1 antibody) and normalised to the change in Halo signal; n = 4
T1 construct: protein phosphatase 1 catalytic subunit, gamma isoform, splice form PP1γ1; In nBRET the HaloTag carries the 618 ligand (acceptor fluorophore); also called Halo-PP1γ; PP1γ; source: HEK293T, transfected (pCMV), in lysate (pull-down) or in living cells (nBRET); not shown: HaloTag, N-terminal, kept

[2] = target: T2, HaloTag-protein phosphatase 1 alpha; assay: as above
T2 construct: protein phosphatase 1 catalytic subunit, alpha isoform; In nBRET the HaloTag carries the 618 ligand (acceptor fluorophore); also called Halo-PP1α; PP1α; source: HEK293T, transfected (pCMV), in lysate (pull-down) or in living cells (nBRET); not shown: HaloTag, N-terminal, kept

[3] = target: T3, HaloTag-protein phosphatase 1 beta (UniProt P62140); assay: as above
T3 construct: protein phosphatase 1 catalytic subunit, beta isoform; In nBRET the HaloTag carries the 618 ligand (acceptor fluorophore); also called Halo-PP1β; PP1β; source: HEK293T, transfected (pCMV), in lysate (pull-down) or in living cells (nBRET); not shown: HaloTag, N-terminal, kept

[4] = target: T1, HaloTag-protein phosphatase 1 gamma 1; assay: FRET or BRET; nBRET in living HEK293T cells at a single acceptor:donor DNA ratio of 100:1, four independent replicates; corrected ratio in mBU; Halo-only controls gave 5.168-5.814 mBU
[5] = target: T2, HaloTag-protein phosphatase 1 alpha; assay: as above

Binder | tau in the pull-down elution, normalised to the change in Halo signal [1] | tau in the pull-down elution, normalised to the change in Halo signal [2] | tau in the pull-down elution, normalised to the change in Halo signal [3] | corrected nBRET ratio at acceptor:donor DNA 100:1 [4] [mBU] | corrected nBRET ratio at acceptor:donor DNA 100:1 [5] [mBU]
B1 | 0.54 ratio of signal intensities, arbitrary units | 0.673 ratio of signal intensities, arbitrary units | 0.061 ratio of signal intensities, arbitrary units | 20.4 | 20.4
B2 | 0.111 ratio of signal intensities, arbitrary units | 0.107 ratio of signal intensities, arbitrary units | – | 8.94 | 10.2

Reference: article PMC8580143, “Frontotemporal Lobar Dementia Mutant Tau Impairs Axonal Transport through a Protein Phosphatase 1γ-Dependent Mechanism” (The Journal of Neuroscience, 2021)
